# From publication PMC12040169 (PLOS Biology, 2025)
# This is one part of the list.
# System: T1, C. trachomatis L2/434/Bu expressing GFP (CTL2-GFP)
# T1 construct: L2/434/Bu GFP intracellular growth in HeLa cells
# Design: species or system HeLa; C. trachomatis total inclusion area by high-content imaging, normalised to DMSO
# Conditions: total inclusion area; 28.5 h, 10 µM; inhibitor
# In short: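 High-content images of fixed, Hoechst-stained infected cultures supply inclusion area and count (growth) plus nuclei number (viability), complementing bulk GFP/resorufin fluorescence. MIC determination is unchanged from the primary assay.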
row,SMILES,% of control remaining
1,Cc1oc(C(C)(C)C)cc1C(=O)Nc1ccc(C(F)(F)F)cc1 [CBK057251],67.532
2,CNC(=S)N(Cc1ccc(S(N)(=O)=O)cc1)C1CC(=O)N(c2ccc(OC)cc2)C1=O (stereo not drawn) [CBK262940],61.4811
3,O=C(O)c1cccc(S(=O)(=O)Nc2nc3ccccc3s2)c1 [CBK161138],90.9332
4,CC(=O)N1CCCN(Cc2c(C(C)C)[nH]c3ncccc23)CC1 [CBK285333],85.559
5,CC(C)(CNC(=O)Cn1cc(C(=O)Nc2ccc(F)cc2)ccc1=O)c1cccc(F)c1 [CBK286079],128.738
6,CN1CCN(C(=O)c2ccc(-c3ccccc3)nc2N(C)C)CC1 [CBK106115],96.7655
7,CC(C)(C)c1ccc(S(=O)(=O)N2CCCC[C@H]2CCOC(=O)/C=C\C(=O)O)cc1 [CBK200069],94.6775
8,O=[N+]([O-])c1ccc(-c2ccc(/C=C/c3cc(O)c4ccccc4n3)o2)cc1 [CBK267792],99.1453
9,O=C(O)C(CCO)Sc1nnc(Nc2ccc(Oc3ccccc3)cc2)s1 (stereo not drawn) [CBK296631],111.551
10,Cc1ccc(CN(CCCn2ccnc2)Cc2cccnc2)o1 [CBK283100],103.479
11,Cc1cccc(Nc2ccc(C3CCCCN3Cc3ccc4nccnc4c3)cn2)n1 (stereo not drawn) [CBK285536],68.7736
12,CCc1nn(CC(=O)NC2CCCC2)c(=O)c2cc3ccsc3n12 [CBK284134],83.5166
13,CC(C)N(C)C1CCN(S(=O)(=O)c2cccc([N+](=O)[O-])c2)CC1 [CBK294462],81.3695
14,CSCCC(NS(=O)(=O)c1ccc(I)cc1)C(=O)O (stereo not drawn) [CBK268768],111.4
15,CN1CCN(c2ccc(NC(=O)c3cccc(Br)c3)cc2)CC1 [CBK266140],118.479
16,COc1ccccc1-c1nc(C2CCCN2C(=O)N[C@@H](C)c2ccccc2)n2ccccc12 (stereo partly drawn) [CBK046625],76.8148
17,CSc1nc2ccc(NS(=O)(=O)c3ccc(Cl)c(C(=O)O)c3)cc2s1 [CBK297541],88.0553
18,CCn1c(SCC(=O)N2c3ccccc3Sc3ccccc32)nnc1C(C)Oc1ccccc1 (stereo not drawn) [CBK266290],149.448
19,COC(=O)c1cccn2cc(CN3CCSC(C)C3)nc12 (stereo not drawn) [CBK304958],104.532
20,Cc1ccc2[nH]c3c(c2c1)CCNCC3 [CBK004811],100.971
21,S=C(NCc1cccs1)NC1CC1 [CBK008520],71.1305

row,SMILES,% of control remaining
1,COCCN(CCOC)C(=O)Nc1ccc(F)c(NC(C)=O)c1 [CBK307705],116.016
2,COCCn1cc(C(=O)N2CCN3CCCCC3C2)c2ccccc21 (stereo not drawn) [CBK305287],44.4553
3,COc1ccccc1-c1nn2c(Cn3cnc4ccccc43)nnc2s1 [CBK268218],108.359
4,C[C@@H](Cn1c(C(F)(F)F)cc2cccnc21)NC(=O)C1CCC1 [CBK283230],93.1797
5,Cc1occc1-c1nnc(SCC(=O)Nc2cccc3nsnc23)o1 [CBK268979],107.044
6,COc1ccc(-c2nc(-c3ccoc3)cnc2N)cc1OC [CBK063964],128.714
7,Cc1ccc(-c2ncc(OCc3cccs3)nc2N)cc1C [CBK145146],86.0072
8,CCc1cc(Br)ccc1S(=O)(=O)NC1CCOC1=O (stereo not drawn) [CBK044385],77.3628
9,CN1CCCN(CC(CC(=O)NCc2ccccc2)C(=O)O)CC1 (stereo not drawn) [CBK286791],105.691
10,Cn1nnnc1Sc1cc(=O)n(C)c(=O)n1C [CBK011072],99.289
11,Cc1nn(CC(=O)NCc2ccc(C(=O)O)cc2)c(C)c1[N+](=O)[O-] [CBK268967],95.1883
12,CC(C)NC(=O)Nc1ccc(C(=O)N(CCC#N)Cc2ccco2)cc1 [CBK305999],63.1301
13,COc1ccc(Cl)cc1Nc1ncnc(N)n1 [CBK288195],119.055
14,Cn1cc(CC(=O)Nc2nc3c(cc2C#N)CCCC3)cn1 [CBK306436],80.2712
15,CC(=O)N1CCC(C(=O)NC(=O)NCCc2ccccc2)CC1 [CBK034851],105.919
16,CCNc1nccnc1-c1cccc(O)c1 [CBK088593],132.334
17,CCOC(=O)N1CCN(c2cc3[nH]c(=S)[nH]c3cc2F)CC1 [CBK288444],87.5228
18,Cc1ccc(SCCNC(=O)COc2ccc(Cl)cc2Cl)cc1 [CBK263976],113.278
19,Cc1cc(C(=O)CSc2ccc(Cl)nn2)c(C)n1C1CC1 [CBK305512],60.1276
20,O=c1c2ccccc2n2c(=O)[nH]nc2n1-c1ccccc1 [CBK288352],63.5174
21,O=C(O)/C=C/c1cccc(NS(=O)(=O)c2ccc(C(=O)O)cc2)c1 [CBK262262],102.271

row,SMILES,% of control remaining
1,c1ccc(CN2CCN(Cc3c[nH]c(-c4ccccc4)n3)CC2)cc1 [CBK074775],86.8398
2,COc1cccc(NC(=O)Cn2cc(OC)c(=O)cc2CN2CCOCC2)c1 [CBK294430],96.589
3,CSc1ccc(-n2ncc(-c3ccc(F)cc3F)n2)cc1 [CBK112728],98.8141
4,COc1cccc2c1cc(C(=O)NCc1cc(C3CC3)[nH]n1)n2C [CBK283282],115.176
5,CCOc1cccc2cc(C(=O)N3CCN(Cc4ccccc4)CC3)c(=O)oc12 [CBK270259C],95.1742
6,COc1cc(CN2CCN(c3ccccn3)CC2)cc(Br)c1O [CBK025770],76.6084
7,Cc1ccc(S(=O)(=O)Nc2cccc3ccccc23)c([N+](=O)[O-])c1 [CBK267381],107.755
8,COc1ccccc1C1C(C(=O)c2sc(C)nc2C)=C(O)C(=O)N1CCCN1CCOCC1 (stereo not drawn) [CBK266592],90.6947
9,CCOC(=O)CN1CCN(c2nccnc2OCCN2CCOCC2)CC1 [CBK082897],18.3475
10,COc1ccnc(N2CCN(C(=O)c3ccc(C)n3C)CC2)n1 [CBK305803],52.7352
11,COCc1cn(C[C@H]2CC3CCN2C[C@@H]3C(=O)NC(C)C)nn1 (stereo partly drawn) [CBK288733],100.218
12,CC(=O)c1ccc(-c2ccc(C(=O)N3CCN(C)CC3)c(N3CCOCC3)n2)s1 [CBK106181],105.211
13,c1ccc2c(c1)OCC(c1nn3c(-c4ccncc4)nnc3s1)O2 (stereo not drawn) [CBK288560],62.2117
14,O=C(c1nccc2ccccc12)N1CCc2ccccc21 [CBK200405],34.8159
15,c1ncn(C2CCCCC2)c1C1CCCCC1 [CBK016758],73.0027
16,CC(C)(C)NC(=O)C1C2CCC3(CC(=O)c4ccccc4O3)C21 (stereo not drawn) [CBK284821],114.875
17,COc1ccc2[nH]cc(CCNC(=O)CCC(=O)O)c2c1 [CBK116605],110.698
18,O=C(c1ccco1)N1CCN(c2ccc(/C=C/c3ccccc3)cn2)CC1 [CBK037701],53.5857
19,Cc1cc(Br)ccc1C(=O)Nc1ccc2cc[nH]c2c1 [CBK160046],106.036
20,CC(=O)Nc1ccc(S(=O)(=O)Nc2ccc(C(=O)N3CCN(C)CC3)cc2)cc1 [CBK050406],104.804
21,COc1cc(C2C(C(=O)c3cccs3)=C(O)C(=O)N2Cc2cccnc2)cc(OC)c1OC (stereo not drawn) [CBK264874],108.656

row,SMILES,% of control remaining
1,COC(=O)Nc1ccc(S(=O)(=O)Oc2ccc(C)cc2-n2nc3ccccc3n2)cc1 [CBK262183],83.8682
2,COc1ccc2c(c1)nc1n2CCC1O (stereo not drawn) [CBK115449],90.9655
3,Cc1cc(C)n(CC(=O)N2CCNC(=O)C2c2ccccc2Cl)n1 (stereo not drawn) [CBK306421],90.8566
4,O=C(N/N=C\c1ccc(-c2ccc(Cl)c(Cl)c2)o1)C1COc2cc3ccccc3cc2O1 (stereo not drawn) [CBK262834],90.7944
5,O=C(Nc1ccc2c(c1)OCO2)C1CCN(S(=O)(=O)c2ccc(Oc3ccccc3)cc2)CC1 [CBK269648],71.9638
6,Cc1ccc2nc(-c3ccccc3)c(CC(=O)O)c(C(=O)O)c2c1 [CBK265128],101.913
7,Cc1n[nH]cc1CN(C)c1cc([C@H]2C[C@@H](N)C2)nc(C2CC2)n1 [CBK307544],32.2914
8,Nc1cccc(-c2cn([C@H]3C[C@@H](O)[C@@H](CO)O3)c(=O)[nH]c2=O)c1 [CBK201262],110.61
9,c1coc(-c2ccc3c(c2)COC2(CCN(CCc4ccc5c(c4)OCO5)CC2)O3)c1 [CBK061057],99.1503
10,CCOC(=O)N1CCC(NS(=O)(=O)c2cccc3cccnc23)CC1 [CBK045453],99.9941
11,Nc1cc(=O)[nH]c(=O)n1CCc1c[nH]c2ccccc12 [CBK288190],90.1143
12,O=S(=O)(c1ccccc1)c1ccc(N2CCNCC2)cc1 [CBK018452],119.467
13,N#Cc1cccc(CSc2nnc(Nc3ccccc3)n2-c2ccccc2)c1 [CBK266040],94.8925
14,CS(=O)(=O)NC1CCN(CCc2ccc(F)c(F)c2)C1 (stereo not drawn) [CBK305078],76.7332
15,COc1ccc(-c2cncc(N(C)CCN(C)C)n2)cc1 [CBK037832],86.9578
16,CCCn1c(C)cc2cc(NC(=O)C(C)n3ccnc3)ccc21 (stereo not drawn) [CBK281547],100.727
17,Cc1c(Cl)cccc1S(=O)(=O)Nc1nc(-c2cccc([N+](=O)[O-])c2)cs1 [CBK000994],76.8753
18,COc1ccc(CCNC(=O)N(CCC#N)C2CCCCC2)cc1 [CBK156375],77.8922
